The supplement of paper PMC12355420
Counter-ions that a name gives are not always drawn. Some of the results follow. Single values are uncertain, as repeats are few or missing.
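Also: screen of an FDA-approved drug library, NanoLuc luminescence read after lysing the treated cells, taken as a measure of mutant VPS33A protein stability.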

These compounds were tested on HeLa VPS33A KO + NLuc-VPS33A R498W (assay: relative mutant VPS33A R498W amount (NanoLuc luminescence) vs DMSO (fraction of DMSO); HeLa model of a glycosaminoglycan (GAG) storage disease; KI is knock-in and KO knock-out; SDC1 is syndecan 1; higher = higher mutant VPS33A level). Conditions: 50 µM; 24 h.
With COc1cc(OC)c(C(=O)CCCN2CCCC2)c(OC)c1 [Buflomedil HCl] the “relative mutant VPS33A R498W amount” value was 1.24. Cc1cnc(C(=O)NCCc2ccc(S(=O)(=O)NC(=O)NC3CCCCC3)cc2)cn1 [Glipizide] was tested, and the “relative mutant VPS33A R498W amount” value was 0.875. CN1CCN(C2=Nc3cc(Cl)ccc3Nc3ccccc32)CC1 [Clozapine] was tested, and the “relative mutant VPS33A R498W amount” value was 0.456. In the case of Cc1ncc(C[n+]2csc(CCO)c2C)c(N)n1 [thiamine], the “relative mutant VPS33A R498W amount” value is reported as 1.2. With CC[C@@H](CO)NCCN[C@@H](CC)CO [Ethambutol HCl] the “relative mutant VPS33A R498W amount” value was 0.992. With Cn1cnc2c(F)c(Nc3ccc(Br)cc3F)c(C(=O)NOCCO)cc21 the “relative mutant VPS33A R498W amount” value was 1.19.
